# Laboratory results taken from PubChem BioAssay AID488969 (Vanderbilt High Throughput Screening Facility, 2010).
# Whole data set: some 110,000 compounds, median “z-score” near -0.1, cut for the highest 2% near 2. This is one part of the list.
# Biological target: Metabotropic glutamate receptor 8 (Rattus norvegicus) (UniProt P70579)
# Assay: mGluR8 Gi/Go-coupled signaling modulation – cell-based, rat, thallium flux, HTS, primary screen (AID 488969)
# Conditions: HEK293 rat mGluR8, GIRK (G protein-gated inwardly rectifying potassium channel) thallium flux, FluoZin2; at 10 µM; stronger effect = higher value; submaximal glutamate (EC20) added with thallium
# Sequence of UniProt P70579 (P70579 whole entry, looked up): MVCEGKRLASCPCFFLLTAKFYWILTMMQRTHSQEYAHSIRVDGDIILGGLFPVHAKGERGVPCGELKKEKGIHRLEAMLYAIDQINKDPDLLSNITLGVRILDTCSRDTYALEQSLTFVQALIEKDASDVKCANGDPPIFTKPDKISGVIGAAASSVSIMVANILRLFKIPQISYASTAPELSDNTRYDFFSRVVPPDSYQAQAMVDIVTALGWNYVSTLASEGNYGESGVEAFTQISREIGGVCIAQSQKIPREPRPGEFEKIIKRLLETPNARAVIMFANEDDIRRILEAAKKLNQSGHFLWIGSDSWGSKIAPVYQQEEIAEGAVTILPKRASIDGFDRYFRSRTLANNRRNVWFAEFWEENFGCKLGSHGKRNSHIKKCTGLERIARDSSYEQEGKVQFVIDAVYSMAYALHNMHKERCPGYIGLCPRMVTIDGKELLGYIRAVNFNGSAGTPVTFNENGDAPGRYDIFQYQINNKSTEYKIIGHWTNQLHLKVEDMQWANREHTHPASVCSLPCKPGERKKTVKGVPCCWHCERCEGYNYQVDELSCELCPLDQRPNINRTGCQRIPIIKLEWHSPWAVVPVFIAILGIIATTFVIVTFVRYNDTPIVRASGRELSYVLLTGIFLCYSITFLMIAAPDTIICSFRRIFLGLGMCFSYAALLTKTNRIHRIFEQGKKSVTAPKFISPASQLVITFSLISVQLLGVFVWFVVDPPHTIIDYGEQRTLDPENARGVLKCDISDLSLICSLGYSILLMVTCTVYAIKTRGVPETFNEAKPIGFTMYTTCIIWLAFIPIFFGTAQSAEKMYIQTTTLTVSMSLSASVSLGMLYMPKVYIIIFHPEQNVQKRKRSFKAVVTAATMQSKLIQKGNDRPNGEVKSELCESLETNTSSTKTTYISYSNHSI
row,SMILES,z-score
1,CCOc1ccccc1C1CC(c2ccc(Br)cc2)Nc2nc(N)nn21 (stereo not given),0.096
2,CCC1CCC2(CC1)NNC(=S)NN2,-0.17
3,O=C1CC(=O)N(c2ccccc2)N1c1ccccc1,-0.107
4,CC(C)CN(C(=O)c1cc2ccccc2o1)c1c(N)n(CC(C)C)c(=O)[nH]c1=O,-0.409
5,COC(=O)c1c(NC(=O)CN2CCN(S(=O)(=O)c3ccccc3[N+](=O)[O-])CC2)sc2c1CCC(C)C2 (stereo not given),-0.183
6,Cc1cccc(C2NC(=O)c3c(sc(C)c3C)N2)c1O (stereo not given),0.00148
7,Cc1ccc(NC(=O)C(C)N2C(=O)C3CC=C(Cl)CC3C2=O)cc1 (stereo not given),-0.206
8,COc1ccc2nc(SCC(=O)Nc3ccc(S(=O)(=O)N4CCCC4)cc3)c(C#N)cc2c1,0.0728
9,CC1CC(C)CN(C(=O)c2ccc(N3CC4CC(C3)c3cccc(=O)n3C4)c([N+](=O)[O-])c2)C1 (stereo not given),-1.22
10,Cc1ccnc2nc(C(=O)NCc3cccs3)nn12,0.416
11,Cc1cccc(CN2CCN(CC(=O)O)C2=O)c1,1.19
12,Cc1nn(C(C)(C)C)c(OC(=O)C2CCCC2)c1S(=O)(=O)c1ccccc1,-0.148
13,CC(C)C(=O)N1c2ccccc2NC2=C(C(=O)CCC2)C1c1ccc(N(C)C)cc1 (stereo not given),-0.528
14,N#C/C(=C(/O)CSc1ccccc1C(=O)O)c1nc2ccccc2s1,-0.325
15,CN1C(=O)/C(=C2\SC(N)=NC2=O)c2ccccc21,0.239
16,Cc1ccc(S(=O)(=O)NNC(=O)C2COc3ccccc3O2)cc1 (stereo not given),0.14
17,CC(C)=CC(=O)Nc1ccccc1Br,-0.129
18,Cc1cccc2c1OCC/C2=N\NC(=O)COc1ccccc1Cl,0.077
19,CN(C)Cc1ccccc1Sc1ccc(O)cc1O,0.374
20,O=C(CSc1ncnc2nc[nH]c12)c1ccc2ccccc2c1,-0.00847
21,O=C(NCCc1ccccc1)C1CCCN(S(=O)(=O)c2cccnc2)C1 (stereo not given),0.0248
22,O=C(CSc1ccc2ccccc2n1)Nc1nsc(-c2ccc(Cl)cc2)n1,0.032
23,O=C(CCN1CCc2ccccc2C(c2ccccc2)C1)c1ccc2c(c1)OCCO2 (stereo not given),-0.639
24,C=C1CSc2nc(=O)c3c(C)c(C)sc3n21,-1.54
25,CCn1nc(C)c(/C=N/NC(=O)c2c[nH]c3ccccc23)c1C,-0.197
26,COc1ccc2ccccc2c1C1CC(=O)N2CN(C)CSC2=C1C#N (stereo not given),0.256
27,O=C(NCc1ccc2c(c1)OCO2)C(c1ccco1)N(C(=O)c1csnn1)c1ccccc1 (stereo not given),-0.0929
28,CCOC(=O)CN(C(=O)CSc1nnc(CNc2ccc(F)cc2)n1C)c1ccccc1,-0.346
29,O=C(/C=C/c1ccco1)NC(=S)Nc1cc(C(F)(F)F)ccc1N1CCOCC1,0.575
30,C=CCN(CC=C)C(=O)C1CCC(C(=O)N(CC=C)CC=C)CC1 (stereo not given),0.388
